The list shows a part of the results.
The compounds below were run on HSkMC (human skeletal muscle cells) (assay: cytotoxicity call (relative viability < 0.9)). Conditions: 10 µM.

SMILES	cytotoxicity call
C[C@H](CO)N1C[C@H](C)[C@@H](CN(C)C(=O)Nc2ccc(F)cc2)Oc2c(NC(=O)CCCCCC(=O)Nc3ccccc3N)cccc2C1=O	inactive
COC1=C(OC)C(=O)C(C/C=C(\C)CC/C=C(\C)CC/C=C(\C)CC/C=C(\C)CC/C=C(\C)CC/C=C(\C)CC/C=C(\C)CC/C=C(\C)CC/C=C(\C)CCC=C(C)C)=C(C)C1=O	inactive
C[C@@H]1CN([C@@H](C)CO)C(=O)Cc2cc(N(C)C)ccc2O[C@H]1CN(C)C(=O)Nc1ccc2c(c1)OCO2	inactive
Cn1nnnc1-c1ccc(N)cc1	inactive
COc1ccc(NC(=O)Nc2ccc3c(c2)C(=O)N([C@H](C)CO)C[C@H](C)[C@@H](CN(C)S(=O)(=O)c2ccc(Cl)cc2)OCCCC[C@@H](C)O3)cc1	inactive
Cc1ccc(S(=O)(=O)N(C)C[C@@H]2Oc3ccc(N(C)C)cc3CC(=O)N([C@H](C)CO)C[C@@H]2C)cc1	inactive
COc1ccc([Si](C)(C)[C@H]2[C@H](CCO)O[C@@]3(C(=O)N(Cc4ccccc4)c4ccc(N5C(=O)c6ccccc6Oc6ccccc65)cc43)[C@@H]2C)cc1	inactive
CO[C@@H]1CN(C)C(=O)c2cc(NC(=O)Nc3cccc(F)c3)ccc2OC[C@@H](C)N(C(=O)Nc2c(C)noc2C)C[C@H]1C	inactive
COc1ccc(S(=O)(=O)Nc2ccc3c(c2)CC(=O)N([C@@H](C)CO)C[C@@H](C)[C@H](CN(C)S(=O)(=O)c2ccc(F)cc2)O3)cc1	inactive
C[C@H]1CN([C@@H](C)CO)S(=O)(=O)c2ccc(C#CCN(C)C)cc2O[C@H]1CN(C)Cc1ccccn1	inactive
Cc1noc(C)c1NC(=O)N(C)C[C@H]1OCCCC[C@@H](C)Oc2ccc(NC(=O)Nc3ccc4c(c3)OCO4)cc2C(=O)N([C@H](C)CO)C[C@@H]1C	inactive

These compounds were tested on HepG2 (assay: cytotoxicity call (relative viability < 0.9)). Conditions: 10 µM.

SMILES	cytotoxicity call
C[C@@H]1CN([C@@H](C)CO)C(=O)c2cccc(NC(=O)CCCCCC(=O)Nc3ccccc3N)c2O[C@@H]1CN(C)Cc1ccc(C(F)(F)F)cc1	inactive
C[C@H]1CN([C@@H](C)CO)C(=O)c2cc(C#CCN(C)C)cnc2O[C@@H]1CN(C)C(=O)CCN1CCCCC1	inactive
C[C@@H]1CN([C@@H](C)CO)C(=O)c2cc(N(C)C)ccc2O[C@@H](C)CCCCO[C@@H]1CN(C)C(=O)CCCN(C)C	inactive
Cc1noc(C)c1NC(=O)N(C)C[C@H]1Oc2ccc(NS(=O)(=O)c3ccccc3)cc2C(=O)N([C@H](C)CO)C[C@@H]1C	inactive
C[C@@H]1CN([C@@H](C)CO)C(=O)Cc2cc(NC(=O)Nc3cccc4ccccc34)ccc2O[C@@H]1CN(C)C(=O)NC1CCCCC1	active
C=CCC[C@@H](Cc1ccc(F)cc1)C(=O)O[C@@H](CNC(=O)[C@H](CC=C)CC(=O)N(CCO)Cc1ccccc1)c1ccccc1	active
COc1ccc(S(=O)(=O)Nc2ccc3c(c2)C(=O)N([C@H](C)CO)C[C@@H](C)[C@H](CN(C)CC2CCCCC2)OCCCC[C@@H](C)O3)cc1	inactive
O=C(C[C@@H]1C=C[C@H](NS(=O)(=O)c2ccc(F)cc2)[C@@H](CO)O1)NCc1ccc(Cl)c(Cl)c1	inactive
CCN1[C@@H]2c3ccc(-c4ccncc4)c(=O)n3C[C@H]1[C@H](CO)[C@H]2C(=O)NCCc1cn(C)cn1	inactive
C[C@@H]1CN([C@H](C)CO)C(=O)CCCn2nncc2CO[C@@H]1CN(C)C(=O)Nc1cccc2ccccc12	inactive
Cc1noc(C)c1NC(=O)N(C)C[C@H]1Oc2c(NC(=O)NC(C)C)cccc2C(=O)N([C@H](C)CO)C[C@H]1C	inactive
CC(C)(O)c1cn(-c2ccc(-c3cc(F)c(CO)c(S(C)(=O)=O)c3)cc2F)c(C(C)(C)c2c(Cl)cccc2Cl)n1	inactive
O=C(O)/C=C/C(=O)Nc1nccs1	inactive
CC1(C)N=C(N)N=C(N)N1c1ccccc1	inactive
COc1ccc(NC(=O)Nc2cccc3c2O[C@@H](CN(C)Cc2ccc(C(F)(F)F)cc2)[C@H](C)CN([C@H](C)CO)C3=O)cc1	inactive
C[C@@H]1CN([C@@H](C)CO)C(=O)c2cc(NC(=O)Nc3ccc(C(F)(F)F)cc3)ccc2O[C@@H]1CN(C)C(=O)Nc1ccc(F)cc1	active
CCNC(=O)[C@H]1[C@H](CO)[C@H]2Cn3c(ccc(C4=CCCC4)c3=O)[C@@H]1N2S(=O)(=O)c1cn(C)cn1	inactive
O=C1CSC(/N=C/c2ccccc2O)=NN1	active
COCC(=O)Nc1ccc2c(c1)C(=O)N(C)C[C@@H](OC)[C@@H](C)CN(C(=O)c1ccccc1F)[C@H](C)CO2	inactive
C[C@@H]1CN([C@@H](C)CO)C(=O)c2cc(NS(=O)(=O)c3cccs3)ccc2O[C@@H](C)CCCCO[C@@H]1CN(C)C(=O)c1ccccc1	inactive

SMILES	cytotoxicity call
COc1ccc(CN(C)C[C@H]2OCCCC[C@H](C)Oc3ccc(NS(=O)(=O)c4ccccc4)cc3C(=O)N([C@@H](C)CO)C[C@@H]2C)cc1	inactive
C[C@@H]1CN([C@@H](C)CO)C(=O)c2cccc(NC(=O)c3ccc(-c4nccs4)cc3)c2O[C@H]1CN(C)C(=O)NC1CCCCC1	inactive
COc1ccc(NC(=O)Nc2ccc3c(c2)C(=O)N([C@H](C)CO)C[C@H](C)[C@H](CN(C)S(=O)(=O)c2c(C)noc2C)OCCCC[C@@H](C)O3)cc1	inactive
C[C@@H]1CN([C@@H](C)CO)C(=O)c2cc(NS(=O)(=O)c3ccc(F)cc3)ccc2O[C@@H](C)CCCCO[C@@H]1CN(C)C(=O)Cc1ccccc1	inactive
C[C@@H]1CN([C@H](C)CO)C(=O)c2cc(NC(=O)CCCCCC(=O)Nc3ccccc3N)ccc2O[C@@H]1CN(C)C(=O)Nc1ccc(F)cc1	inactive
C[C@H]1CN([C@@H](C)CO)C(=O)c2cc(-c3ccc(C#N)cc3)cnc2O[C@@H]1CN(C)C(=O)Nc1ccc(C(F)(F)F)cc1	inactive
C[C@@H]1CN([C@H](C)CO)C(=O)c2cc(NC(=O)Nc3ccc4c(c3)OCO4)ccc2O[C@@H](C)CCCCO[C@@H]1CN(C)C(=O)c1ccccc1	inactive
COc1ccc(-c2oc3c(CC=C(C)C)c(OC4OC(CO)C(O)C(O)C4O)cc(O)c3c(=O)c2OC2OC(C)C(O)C(O)C2O)cc1 (stereo unspecified)	inactive
CN(C)CCCNC(=O)C[C@@H]1CC[C@H]2[C@@H](COc3ccc(NC(=O)NC4CCCC4)cc3C(=O)N2C)O1	inactive
C[C@H](CO)N1C[C@H](C)[C@@H](CN(C)C(=O)Nc2ccc(F)cc2)Oc2c(NC(=O)CCCCCC(=O)Nc3ccccc3N)cccc2C1=O	inactive
COC1=C(OC)C(=O)C(C/C=C(\C)CC/C=C(\C)CC/C=C(\C)CC/C=C(\C)CC/C=C(\C)CC/C=C(\C)CC/C=C(\C)CC/C=C(\C)CC/C=C(\C)CCC=C(C)C)=C(C)C1=O	inactive
C[C@@H]1CN([C@@H](C)CO)C(=O)Cc2cc(N(C)C)ccc2O[C@H]1CN(C)C(=O)Nc1ccc2c(c1)OCO2	inactive
Cn1nnnc1-c1ccc(N)cc1	inactive
COc1ccc(NC(=O)Nc2ccc3c(c2)C(=O)N([C@H](C)CO)C[C@H](C)[C@@H](CN(C)S(=O)(=O)c2ccc(Cl)cc2)OCCCC[C@@H](C)O3)cc1	inactive
Cc1ccc(S(=O)(=O)N(C)C[C@@H]2Oc3ccc(N(C)C)cc3CC(=O)N([C@H](C)CO)C[C@@H]2C)cc1	active
COc1ccc([Si](C)(C)[C@H]2[C@H](CCO)O[C@@]3(C(=O)N(Cc4ccccc4)c4ccc(N5C(=O)c6ccccc6Oc6ccccc65)cc43)[C@@H]2C)cc1	active
CO[C@@H]1CN(C)C(=O)c2cc(NC(=O)Nc3cccc(F)c3)ccc2OC[C@@H](C)N(C(=O)Nc2c(C)noc2C)C[C@H]1C	inactive
COc1ccc(S(=O)(=O)Nc2ccc3c(c2)CC(=O)N([C@@H](C)CO)C[C@@H](C)[C@H](CN(C)S(=O)(=O)c2ccc(F)cc2)O3)cc1	inactive
C[C@H]1CN([C@@H](C)CO)S(=O)(=O)c2ccc(C#CCN(C)C)cc2O[C@H]1CN(C)Cc1ccccn1	inactive
Cc1noc(C)c1NC(=O)N(C)C[C@H]1OCCCC[C@@H](C)Oc2ccc(NC(=O)Nc3ccc4c(c3)OCO4)cc2C(=O)N([C@H](C)CO)C[C@@H]1C	inactive
